Measurements: PubChem BioAssay (NCATS)
“And” between values parts separate entries of the source, which are not always exact repeats. Equal entries are not always repeated. Inconclusive results, whose numbers are uncertain, are shown with a selection of clear calls. For some assays here: Where the call is inconclusive, the potency comes from a doubtful curve fit. For some assays here: A note “side channel” means that the fit belongs to a control or component signal, not to the main read-out. The source made the active and inactive calls. Unless noted, calls come from the whole dose curve.

How the values were obtained:
[1] = target: Peroxisome proliferator-activated receptor delta (Homo sapiens) (UniProt Q03181); assay: qHTS assay for small molecule agonists of peroxisome proliferator-activated receptor delta signaling (AID 588534); settings: HEK293T PPARdelta-UAS-bla, beta-lactamase ratio, 18 h; activation: at 76.7 µM (top of the series); note: potency is the fitted concentration of half-maximal effect;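 for activation: 0% = DMSO basal wells and 100% = positive control agonist at 10 µM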
Outline: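 EC50 and efficacy values derive from Hill fits of a concentration series in a beta-lactamase reporter cell assay. Exposure is 18 hrs at 37 C, with CCF4 fluorescence as the readout.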

[2] = target: Peroxisome proliferator-activated receptor delta (Homo sapiens) (UniProt Q03181); assay: qHTS assay for small molecule antagonists of peroxisome proliferator-activated receptor delta signaling (AID 588535; active = well fitted inhibition curve with a large enough effect in the signal ratio, with a control signal flat, not every such curve was filed as active; inconclusive = small, poorly fitted or top-dose-only effect, or effect the other way, or a change in a side signal; inactive = no such curve, though single readings can be large or run the other way; the % refers to the signal ratio; note: potency is the fitted concentration of half-maximal effect); settings: HEK293T PPARd-UAS-bla, beta-lactamase FRET ratio, 18 h; activity change, negative = inhibition: at 76.7 µM (top of the series)
Outline: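 Compounds tested in titration on PPAR-delta-UAS-bla HEK293T cells grown in charcoal/dextran-stripped serum (2%); beta-lactamase activity read via CCF4 emission at 460 and 530 nm.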

[3] = target: Peroxisome proliferator-activated receptor gamma (Homo sapiens) (UniProt P37231); assay: qHTS assay for small molecule agonists of peroxisome proliferator-activated receptor gamma signaling (AID 588536; active = well fitted curve in the direction sought with a large enough effect in the signal ratio, with a control signal flat, not every such curve was filed as active; inconclusive = small, poorly fitted or top-dose-only effect, or effect the other way, or a change in a side signal; inactive = no such curve, though single readings can be large or run the other way; the % refers to the signal ratio; note: potency is the fitted concentration of half-maximal effect;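 for activation: 0% = DMSO basal wells and 100% = rosiglitazone at 2 µM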); settings: HEK293 PPARg-UAS-bla, beta-lactamase ratio, 16 h; activation: at 76.7 µM (top of the series), percent of rosiglitazone response, DMSO as zero
Outline: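 Using GeneBLAzer HEK293 cells, response was quantified by CCF4 fluorescence and normalized between basal DMSO (0%) and rosiglitazone 2 uM (100%); curves yielded half-maximal stimulation concentration and efficacy.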

[4] = target: Glucocorticoid receptor (Homo sapiens) (UniProt P04150); assay: qHTS assay for small molecule antagonists of glucocorticoid receptor signaling (AID 588533; active = well fitted inhibition curve with a large enough effect in the signal ratio, with a control signal flat, not every such curve was filed as active; inconclusive = small, poorly fitted or top-dose-only effect, or effect the other way, or a change in a side signal; the % refers to the signal ratio;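 note: cells stimulated with 2 nM dexamethasone as agonist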; note: potency is the fitted concentration of half-maximal effect; for activity change, negative = inhibition: % is set by controls: 0 for no effect and ±100 for the full control effect); settings: HeLa MMTV-bla, GRE beta-lactamase ratio, antagonist mode, 18 h
[5] = target: Peroxisome proliferator-activated receptor gamma (Homo sapiens) (UniProt P37231); assay: qHTS assay for small molecule antagonists of peroxisome proliferator-activated receptor gamma signaling (AID 588537; active = well fitted inhibition curve with a large enough effect in the signal ratio, with a control signal flat, not every such curve was filed as active; inconclusive = small, poorly fitted or top-dose-only effect, or effect the other way, or a change in a side signal; the % refers to the signal ratio; note: potency is the fitted concentration of half-maximal effect;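 note: reporter cells co-stimulated with 50 nM rosiglitazone agonist during compound treatment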; for activity, negative = inhibition: % of control where 0% means no effect); settings: HEK293 PPARg-UAS-bla, beta-lactamase ratio, antagonist mode
Outline: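 HEK293 cells, PPAR-gamma-UAS-bla, 3000/well. Pre-incubation 6-6.5 h, 37 C. Compound titration with rosiglitazone 50 nM final, 16 h. CCF4 dye, 2 h RT, dual-emission fluorescence.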

[6] = target: Retinoic acid receptor RXR-alpha (Homo sapiens) (UniProt P19793); assay: qHTS assay for small molecule agonists of retinoid X receptor alpha signaling (AID 588544); settings: HEK293T RXRa-UAS-bla, beta-lactamase reporter, 18 h; activation: at 76.7 µM (top of the series) unless noted; note: potency is the fitted concentration of half-maximal effect;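 for activation: 0% = DMSO basal wells and 100% = reference agonist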
[7] = target: Thyroid hormone receptor beta (Homo sapiens) (UniProt P10828); assay: qHTS assay for small molecule agonists of thyroid hormone receptor beta signaling (AID 588545); settings: TR-UAS-bla GripTite HEK 293, beta-lactamase ratio, agonist mode, 18 h; activation: at 76.7 µM, percent of T3 response, DMSO as zero; note: potency is the fitted concentration of half-maximal effect
Outline: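 Cells (2500/well) were seeded, incubated 4 hrs at 37 C, dosed with a compound series, incubated 18 hrs, loaded with CCF4 dye for 2 hrs at RT, then read for fluorescence. Data were scaled between DMSO (0%) and 10 nM T3 (100%).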

[8] = target: Thyroid hormone receptor beta (Homo sapiens) (UniProt P10828); assay: qHTS assay for small molecule antagonists of thyroid hormone receptor beta signaling (AID 588547; active = well fitted inhibition curve with a large enough effect in the signal ratio, with a control signal flat, not every such curve was filed as active; inconclusive = small, poorly fitted or top-dose-only effect, or effect the other way, or a change in a side signal; the % refers to the signal ratio; note: potency is the fitted concentration of half-maximal effect;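 for activity change % (negative = inhibition): cells stimulated with 0.4 nM T3 agonist during compound exposure; % is set by controls: 0 for no effect and ±100 for the full control effect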); settings: TR-UAS-bla HEK293, beta-lactamase ratio, antagonist mode, 18 h
Outline: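 TR-UAS-bla GripTite HEK293 cells in 2% charcoal/dextran FBS medium were preincubated 4 h at 37 C, given compound (0.59 nM to 92 uM) plus 0.4 nM T3 (final) for 18 h, then CCF4 for 2 h at RT; Hill fit gave IC50.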

[9] = S16 Schwann cell viability assay (CellTiter-Glo assay) (AID 624031; active = well fitted curve in the direction sought with a large enough effect; inconclusive = small, poorly fitted or top-dose-only effect, or another doubt; inactive = no such curve, though single readings can be large; an effect the other way counts as inactive or inconclusive;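 note: native untransfected S16 rat Schwann cells; cellular ATP luminescence as a viability measure; nearly all actives have a fitted effect of over 70% in size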; note: potency is the fitted concentration of half-maximal effect)
Outline: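 Concentration-effect curves come from CellTiter-Glo luminescence of S16 rat Schwann cells after 24 h compound exposure. Each reading was normalized to DMSO wells (0%) and wells without cells, and curves were ranked by r2 and response magnitude.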

[10] = S16 Schwann cell PMP22 intronic element firefly luciferase assay (AID 624032; active = well fitted curve in the direction sought with a large enough effect; inconclusive = small, poorly fitted or top-dose-only effect, or another doubt; inactive = no such curve, though single readings can be large; an effect the other way counts as inactive or inconclusive; note: nearly all actives have a fitted effect of over 30% in size; note: potency is the fitted concentration of half-maximal effect;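 for activity change, negative = inhibition: plate controls were DMSO for no effect and PTC124 positive control mean for full effect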)
Outline: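 Rat S16 Schwann cells stably carrying a PMP22 intronic element-driven Fluc reporter were seeded overnight, then exposed to compounds for 24 h at 37 °C. Luminescence was normalized to PTC124 (positive control) and DMSO (0% activity).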

[11] = target: Vitamin D3 receptor (Homo sapiens) (UniProt P11473); assay: qHTS assay for small molecule antagonists of vitamin D receptor signaling (AID 588541); settings: HEK293T VDR-UAS-bla, beta-lactamase ratio, antagonist mode; activity change, negative = inhibition: at 76.7 µM (top of the series);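 note: receptor activated by calcitriol during compound treatment; % is set by controls: 0 for no effect and ±100 for the full control effect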
[12] = target: Vitamin D3 receptor (Homo sapiens) (UniProt P11473); assay: qHTS assay for small molecule agonists of vitamin D receptor signaling (AID 588543); settings: HEK293T VDR-UAS-bla, beta-lactamase ratio, 16 h; activation: at 76.8 µM (top of the series); note: potency is the fitted concentration of half-maximal effect;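 for activation: 0% = DMSO basal and 100% = reference agonist control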
Outline: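 Measured: β-lactamase reporter activity (CCF4, 405 nm excitation, 460/530 nm emission) in HEK293T VDR-UAS-bla cells after 16 h compound exposure at 37 °C. Normalization against 50 nM 1α,25-dihydroxyvitamin D3 and DMSO; Hill-fit EC50.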

[13] = S16 Schwann cell PMP22 intronic element beta-lactamase assay (AID 624044); settings: S16 rat Schwann cells, PMP22 element beta-lactamase FRET, 24 h; ratio activity, negative = inhibition: at 38.3 µM (top of the series) unless noted; note: potency is the fitted concentration of half-maximal effect; nearly all actives have a fitted effect of over 15% in size
Outline: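 Beta-lactamase reporter under a PMP22 intronic regulatory element in stable S16 rat Schwann cells; 24 h compound exposure. 460 nm blue signal normalized between DMSO (0%) and potassium clavulanate, with 535 nm FRET tracking viability; curves classed by r2 and response.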

[14] = target: Voltage-gated inwardly rectifying potassium channel KCNH2 (Homo sapiens) (UniProt Q12809); assay: qHTS Assay for Small Molecule Inhibitors of the Human hERG Channel Activity (AID 588834; active = well fitted curve in the direction sought with a large enough effect; inconclusive = small, poorly fitted or top-dose-only effect, or another doubt; inactive = no such curve, though single readings can be large; an effect the other way counts as inactive or inconclusive;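 note: top concentration of the series differs between compounds; % is set by controls: 0 for no effect and ±100 for the full control effect; lower thallium flux fluorescence means stronger hERG block; nearly all actives have a fitted effect of over 50% in size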); settings: U2OS BacMam hERG, FluxOR thallium flux fluorescence; activity change, negative = inhibition: at 46.1 µM (top of the series)
Outline: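 Homogeneous FluxOR thallium flux assay using hERG-expressing U2OS cells (BacMam). Compound treatment about 10 minutes preceded stimulation; reduced fluorescence taken as channel block.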

[15] = target: Glucocorticoid receptor (Homo sapiens) (UniProt P04150); assay: qHTS assay for small molecule agonists of glucocorticoid receptor signaling (AID 588532; active = well fitted curve in the direction sought with a large enough effect in the signal ratio, with a control signal flat; inconclusive = small, poorly fitted or top-dose-only effect, or a change in a side signal; inactive = no such curve, though single readings can be large or run the other way; the % refers to the signal ratio; note: potency is the fitted concentration of half-maximal effect;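 for activation: 100% = dexamethasone at 0.1 µM and 0% = DMSO only wells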); settings: HeLa MMTV-bla, beta-lactamase ratio, agonist, 18 h; activation: active compounds read high, percent of dexamethasone control, DMSO zero
Outline: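 MMTV-bla HeLa, beta-lactamase reporter; medium with 1% charcoal/dextran-stripped FBS; cpds up to 92 uM, 18 h, 37 C; CCF4 readout 460/530 nm; Hill fit → EC50, efficacy vs 0.1 uM dexamethasone = 100%.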

[16] = activity change, negative = inhibition: at 76.8 µM (top of the series)
[17] = activity, negative = inhibition: at 76.8 µM (top of the series) unless noted
Tags give direction and shape of the fitted curve or compound fluorescence and quenching.

Sequence of UniProt P10828 (P10828 whole entry, looked up): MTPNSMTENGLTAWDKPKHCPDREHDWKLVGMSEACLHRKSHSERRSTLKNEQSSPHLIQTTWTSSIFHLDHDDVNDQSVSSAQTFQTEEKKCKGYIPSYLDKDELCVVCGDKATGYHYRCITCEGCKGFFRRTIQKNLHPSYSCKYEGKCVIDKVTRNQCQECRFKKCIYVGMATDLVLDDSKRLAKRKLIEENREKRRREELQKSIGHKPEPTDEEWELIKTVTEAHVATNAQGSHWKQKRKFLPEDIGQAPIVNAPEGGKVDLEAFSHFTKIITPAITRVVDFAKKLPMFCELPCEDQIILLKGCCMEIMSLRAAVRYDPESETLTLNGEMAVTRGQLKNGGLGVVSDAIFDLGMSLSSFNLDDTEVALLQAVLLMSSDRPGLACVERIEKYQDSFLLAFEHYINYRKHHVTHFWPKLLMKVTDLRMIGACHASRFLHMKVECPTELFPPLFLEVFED
Sequence of UniProt P19793 (P19793 whole entry, looked up): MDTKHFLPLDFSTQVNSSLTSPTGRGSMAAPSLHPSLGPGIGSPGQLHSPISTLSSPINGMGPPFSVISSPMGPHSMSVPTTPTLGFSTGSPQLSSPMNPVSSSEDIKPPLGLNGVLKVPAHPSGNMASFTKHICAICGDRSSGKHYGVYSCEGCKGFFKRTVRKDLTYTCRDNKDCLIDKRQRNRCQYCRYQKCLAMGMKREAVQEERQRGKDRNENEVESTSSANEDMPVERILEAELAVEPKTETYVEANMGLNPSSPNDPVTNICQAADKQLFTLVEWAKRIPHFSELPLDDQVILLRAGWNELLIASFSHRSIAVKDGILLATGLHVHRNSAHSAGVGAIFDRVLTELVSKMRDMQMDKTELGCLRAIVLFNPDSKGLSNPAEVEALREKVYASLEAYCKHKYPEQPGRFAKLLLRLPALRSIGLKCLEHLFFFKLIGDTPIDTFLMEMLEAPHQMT
Sequence of UniProt Q03181 (Q03181 whole entry, looked up): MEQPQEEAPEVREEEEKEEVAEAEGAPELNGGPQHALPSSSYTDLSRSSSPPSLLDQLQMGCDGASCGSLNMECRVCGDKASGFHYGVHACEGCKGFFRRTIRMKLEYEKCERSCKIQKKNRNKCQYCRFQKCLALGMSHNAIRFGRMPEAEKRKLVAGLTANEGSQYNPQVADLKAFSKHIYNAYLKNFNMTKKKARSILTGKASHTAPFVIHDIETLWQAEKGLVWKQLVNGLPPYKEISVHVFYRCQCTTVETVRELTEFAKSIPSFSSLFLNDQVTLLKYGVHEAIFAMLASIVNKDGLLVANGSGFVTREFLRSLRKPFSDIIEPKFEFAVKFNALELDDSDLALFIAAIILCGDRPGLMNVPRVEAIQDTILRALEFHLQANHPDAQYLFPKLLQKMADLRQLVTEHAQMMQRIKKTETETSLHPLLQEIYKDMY
Sequence of UniProt Q12809 (Q12809 whole entry, looked up): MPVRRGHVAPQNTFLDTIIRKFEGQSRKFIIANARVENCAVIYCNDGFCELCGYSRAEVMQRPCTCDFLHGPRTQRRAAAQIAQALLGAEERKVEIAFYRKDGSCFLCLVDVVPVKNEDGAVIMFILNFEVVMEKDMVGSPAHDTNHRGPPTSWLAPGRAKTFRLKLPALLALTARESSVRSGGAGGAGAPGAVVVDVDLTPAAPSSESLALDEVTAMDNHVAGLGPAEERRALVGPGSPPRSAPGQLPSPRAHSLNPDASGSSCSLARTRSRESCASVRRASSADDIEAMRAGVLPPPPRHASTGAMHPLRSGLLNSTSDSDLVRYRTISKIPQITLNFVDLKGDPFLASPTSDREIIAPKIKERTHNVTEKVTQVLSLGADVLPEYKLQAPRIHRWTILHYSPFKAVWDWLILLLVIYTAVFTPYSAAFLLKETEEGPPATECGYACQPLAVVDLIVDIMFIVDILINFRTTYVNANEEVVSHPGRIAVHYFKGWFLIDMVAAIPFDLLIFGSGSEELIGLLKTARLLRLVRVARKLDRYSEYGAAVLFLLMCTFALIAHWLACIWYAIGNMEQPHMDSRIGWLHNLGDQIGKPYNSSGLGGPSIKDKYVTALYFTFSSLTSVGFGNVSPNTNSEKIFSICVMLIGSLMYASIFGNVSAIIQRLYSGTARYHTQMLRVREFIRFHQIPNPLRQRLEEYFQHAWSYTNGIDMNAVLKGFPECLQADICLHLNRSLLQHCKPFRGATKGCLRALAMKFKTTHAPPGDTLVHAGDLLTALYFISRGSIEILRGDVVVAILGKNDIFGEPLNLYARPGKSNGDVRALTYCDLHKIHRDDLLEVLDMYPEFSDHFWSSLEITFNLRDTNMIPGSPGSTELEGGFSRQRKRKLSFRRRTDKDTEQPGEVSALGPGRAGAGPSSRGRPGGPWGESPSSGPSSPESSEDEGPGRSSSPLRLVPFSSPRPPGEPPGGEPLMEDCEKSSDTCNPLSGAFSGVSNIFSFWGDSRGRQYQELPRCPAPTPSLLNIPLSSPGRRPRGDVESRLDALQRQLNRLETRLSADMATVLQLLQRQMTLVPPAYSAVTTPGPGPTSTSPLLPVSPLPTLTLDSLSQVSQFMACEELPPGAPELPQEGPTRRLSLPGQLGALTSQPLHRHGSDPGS

OC(Cn1cncn1)(Cn1cncn1)c1ccc(F)cc1F
Potency [1]: inactive | activity change, negative = inhibition [2]: inconclusive: 28.2% | Potency [3]: inactive

CC/C(=C(\c1ccccc1)c1ccc(OCCN(C)C)cc1)c1ccccc1
activity change, negative = inhibition [4, 16]: inconclusive: -43.6% | Potency [1]: inconclusive: 50.1 µM [activator, single point] | activation [1]: inconclusive: -18.4% | Potency [2]: inconclusive: 31.6 µM [inhibitor, partial curve, poor fit] | activity change, negative = inhibition [2]: inconclusive: 92.7% | Potency [3]: inconclusive: 50.1 µM [cytotoxic, side channel, single point] | activation [3]: inconclusive: -18.3% | Potency [5, 17]: inconclusive: 50.1 µM [fluorescent, side channel, single point] | Potency [6]: inconclusive: 7.94 µM [side channel, rising, partial curve, poor fit] | activation [6]: inconclusive: 124% | Potency [7]: inconclusive: 28.2 µM [side channel, falling, partial curve, poor fit] | activation [7]: inconclusive: 141% | Potency [8]: inconclusive: 28.2 µM [inhibitor, single point] and inconclusive: 39.8 µM [cytotoxic, side channel, single point] | Potency [9]: active: 32.2 µM | Potency [10]: inconclusive: 40.5 µM [inhibitor, single point]

CC1=C(/C=C/C(C)=C/C=C/C(C)=C/C(=O)O)C(C)(C)CCC1
activity change, negative = inhibition [4, 16]: inconclusive: -15.1% | activity change, negative = inhibition ([4]; at 76.8 µM (top of the series)): inactive: -42.1% | Potency [2]: inactive | activity, negative = inhibition [5, 17]: inconclusive: -28.2% | activity change, negative = inhibition [11]: inconclusive: 15.9% | Potency [12]: inconclusive: 31.6 µM [fluorescent, side channel, partial curve] | activation [7]: inconclusive: -15.8% | Potency [8]: inconclusive: 2.8 nM [cytotoxic, side channel, full curve, poor fit] | Potency [13]: inconclusive: 199 nM [falling, full curve]

CC1=CCC(C(C)(C)O)CC1 (stereo not drawn)
Potency [5, 17]: inactive | activity change % (negative = inhibition) [8]: inactive: -18.4% | Potency [14]: inactive

C[C@]12C=CC(=O)C=C1CC[C@H]1[C@@H]3C[C@@H](O)[C@](O)(C(=O)CO)[C@@]3(C)C[C@H](O)[C@@]12F
Potency [15]: active: 0.112 µM | Potency [2]: inactive | Potency [5, 17]: inactive | Potency [12]: inactive

CN(C)C(=S)SC(=S)N(C)C
Potency [2]: inactive | Potency [5, 17]: inactive | activity change % (negative = inhibition) [8]: inactive: 10.8%

C=C(CC)C(=O)c1ccc(OCC(=O)O)c(Cl)c1Cl
Potency [4, 16]: inconclusive: 35.5 µM [inhibitor, single point] | Potency [1]: inconclusive: 25.1 µM [side channel, rising, full curve, poor fit] | Potency [2]: inconclusive: 35.5 µM [side channel, rising, partial curve] | activation [3]: inconclusive: 14% | Potency [5, 17]: inconclusive: 50.1 µM [side channel, rising, single point] | Potency [6]: inconclusive: 25.1 µM [falling, full curve] | Potency [8]: inconclusive: 39800 nM [side channel, rising, partial curve, poor fit]

Cc1cc2c(C(C)C)c(O)c(O)c(C=O)c2c(O)c1-c1c(C)cc2c(C(C)C)c(O)c(O)c(C=O)c2c1O
activation [6]: inconclusive: 42% | activation [7]: inconclusive: 81%

CC(C)O
Potency [1]: inactive | Potency [2]: inactive | activity, negative = inhibition [5, 17]: inconclusive: 6.77% | Potency [7]: inconclusive: 0.501 µM [side channel, falling, full curve, poor fit]

C[Si](C)(C)O[Si](C)(C)C
Potency [5, 17]: inactive | Potency [12]: inactive

O=CCCCC=O
activation [15]: inactive: 5.8% | activity change, negative = inhibition [4, 16]: inconclusive: -13% | Potency [3]: inconclusive: 44.7 µM [activator, partial curve] | Potency [5, 17]: inconclusive: 44.7 µM [activator, single point] | Potency [6]: inactive

CCOc1ccc(NC(C)=O)cc1
Potency [15]: inconclusive: 15.8 µM [side channel, falling, partial curve, poor fit] | activity change, negative = inhibition [4, 16]: inconclusive: 0.45% | activation [3]: inconclusive: 3.67% | Potency [8]: inconclusive: 1.8 nM [side channel, falling, full curve, poor fit] | activity change % (negative = inhibition) [8]: inactive: 4.97%

CC(=O)Nc1cccc(O)c1
Potency [5, 17]: inconclusive: 70.8 µM [activator, single point] | Potency [9]: inactive | Potency [10]: inactive

C=CCc1ccc(O)c(OC)c1
activity, negative = inhibition [5, 17]: inconclusive: 6.94% | activity, negative = inhibition ([5]; at 76.8 µM (top of the series)): inactive: 9.73% | Potency [6]: inactive
